According to the supplement of paper PMC11417369:
± gives the standard deviation of the averaged measurements. The list shows a part of the results.

test system: PfAP2-G AP2 domain (GST-tagged); test: gcPBM binding intensity (ln(normalized median fluorescence intensity)); higher = stronger DNA binding
In short: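 Binding intensity is defined as the maximum Masliner-normalised natural-log median intensity across replicate spots for either probe orientation. It was measured on an Agilent 4 × 180k array of primer-extended double-stranded 36-bp intergenic genomic probes and negative controls, to which GST-tagged P. falciparum DNA-binding domains made in E. coli were applied for 1 h in 1× PBS with 1% milk, 0.2 mg/ml BSA, 0.5% salmon testes DNA and 0.03% Triton X-100. Detection was by Alexa488 anti-GST antibody and scanning at 488 nm.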

Row | Sequence | gcPBM binding intensity (ln)
1 | ATATATGTATATATTTGTACATATAATATTTTTTAA [XGTACX_site6345] | 10.8 ± 0.47
2 | TATTCACATACAGAAACACACACATATATATAAATT [CACACA_site9232] | 10.01 ± 0.021
3 | AATATAATAACTTATTGTACGAAATTATATCACCTT [XGTACX_site7883] | 10.7 ± 0.45
4 | TTTGTGTGTGCGTGTGCATGTTGTTTTTTTCTATAA [TGCATGCA_site17] | 10.5 ± 0.23
5 | TTCGTTCTTTTATGCACACTCAACATATAAATTAAA [CACACA_site1209] | 10.4 ± 0.38
6 | TGTACAAATATGTACACACACACATATATATATATA [CACACA_site584] | 11.4 ± 0.91
7 | TATTATTTTAAAAATGCATGTTCATATGAAATAATA [TGCATGCA_site969] | 9.99 ± 0.28
8 | TTATAATATATATGTAGTACTGTTTTTTTCTATTTT [XGTACX_site7749] | 11 ± 0.63
9 | ATACTATTATATATATGTACATATATATGATGCTCT [XGTACX_site1771] | 11.1 ± 0.67
10 | AAGGAGCCTATGAACACACACATGTACATATATTAA [CACACA_site4084] | 11.2 ± 0.55
11 | AATATATATTTATGTACACACTCCAATACAGATACA [CACACA_site5481] | 11.6 ± 0.95
12 | CATATACATACACATACACACATACACCCATACACA [CACACA_site8514] | 10.4 ± 0.38
13 | TGTAAAAAATTTAACACACACATATATAAATATGTA [CACACA_site7261] | 9.66 ± 0.028
14 | AGTAAATAATTATATACATGCATTTACTAATATTTA [TGCATGCA_site952] | 9.76 ± 0.085
15 | ATATGACGTAGTGGTGTACACACATGGTACCTTTAT [CACACA_site8436] | 11.9 ± 1.1
16 | ACAAGACAACAAGGAAGTACTCATAAATATATTTGG [XGTACX_site1423] | 11.2 ± 0.66
17 | TTTTTATGTGTATATTATTACATTTACATCTTTAAC [CACACA_negctrl_site1676] | 10 ± 0.042
18 | CTCACATATATATATAGTACAATTTTTTTTTTTTTT [XGTACX_site5999] | 10.7 ± 0.4
19 | ATGTAGAATTGTAAATGTACATGAAACACATATTCA [XGTACX_site3436] | 10.9 ± 0.38
20 | AAGAAAAATACTACGTGTACCAAACTTCCTACCAAC [XGTACX_site1426] | 11.1 ± 0.54
21 | TATATATATATATTATGTACATATAAATATATTTTT [XGTACX_site1509] | 11.3 ± 0.55
22 | ATATATATATAAATATGTACATATTTATATATGAAT [XGTACX_site3220] | 11.3 ± 0.86
23 | ATCTATATTATAATAACACACATATATTATAGTATA [CACACA_site6330] | 9.84 ± 0.18
24 | TGTAAATATAAAAGATAATGATAAAAGGGACATTTT [CACACA_negctrl_site661] | 10.4 ± 0.25
